In the antibiotic and cytotoxicity screens of Wong et al. (2023):
The other results are listed elsewhere or left out.

How the values were obtained:
[1] = system: HSkMC (human skeletal muscle cells); assay: cytotoxicity call (relative viability < 0.9); details: 10 µM
[2] = system: HepG2; assay: cytotoxicity call (relative viability < 0.9); details: 10 µM
[3] = system: S. aureus RN4220; assay: growth inhibition call (relative growth <= 0.2); details: 50 µM

C[C@@H]1CN([C@@H](C)CO)S(=O)(=O)c2ccc(C#Cc3ccccc3F)cc2O[C@H]1CN(C)C(=O)Cc1ccncc1
inactive: cytotoxicity call [1] | cytotoxicity call [2] | growth inhibition call [3]

C[C@@H]1CCCCO[C@@H](CN(C)S(=O)(=O)c2cccs2)[C@@H](C)CN([C@H](C)CO)C(=O)c2cc(NC(=O)c3ccccc3)ccc2O1
inactive: cytotoxicity call [1] | cytotoxicity call [2] | growth inhibition call [3]

CN(C)C1C(O)=C(C(N)=O)C(=O)C2(O)C(O)=C3C(=O)c4c(O)ccc(Cl)c4C(C)(O)C3CC12.Cl (configuration not stated)
inactive: cytotoxicity call [1] | cytotoxicity call [2] | growth inhibition call [3]

C[C@H](CO)N1C[C@H](C)[C@@H](CN(C)S(=O)(=O)c2ccccc2)Oc2ncc(Br)cc2C1=O
inactive: cytotoxicity call [1] | cytotoxicity call [2] | growth inhibition call [3]

C[C@@H]1CN([C@@H](C)CO)C(=O)c2cc(NC(=O)c3ccncc3)ccc2O[C@@H](C)CCCCO[C@H]1CN(C)C(=O)NC1CCCCC1
inactive: cytotoxicity call [1] | cytotoxicity call [2] | growth inhibition call [3]

O=C(N[C@H]1CC[C@@H](CC(=O)N2CCOCC2)O[C@H]1CO)c1ccc2c(c1)OCO2
inactive: cytotoxicity call [1] | cytotoxicity call [2] | growth inhibition call [3]

Cc1ccc(S(=O)(=O)N2C[C@@H](O)COC[C@@H]3O[C@@H](CC(=O)N[C@H]4CCN(Cc5ccccc5)C4)CC[C@H]32)cc1
inactive: cytotoxicity call [1] | cytotoxicity call [2] | growth inhibition call [3]

CC/C=C\C/C=C\C/C=C\CCCCCCCCCC(=O)O
inactive: cytotoxicity call [1] | cytotoxicity call [2] | growth inhibition call [3]

C[C@H](CO)N1C[C@H](C)[C@H](CN(C)Cc2ccc(C(F)(F)F)cc2)OCCCC[C@H](C)Oc2ccc(NS(=O)(=O)c3ccc(F)cc3)cc2C1=O
inactive: cytotoxicity call [1] | cytotoxicity call [2] | growth inhibition call [3]
